Data: PubChem BioAssay AID1508623 (National Center for Advancing Translational Sciences (NCATS), 2021)
Hit rate of the full screen: of about 48,000 compounds, about 450 (0.94%) were called active. Another 19% or so got no clear call; they are omitted. The call rests on the fitted dose curve; in most records, active means well fitted inhibition curve with a large enough effect; inconclusive means small, poorly fitted or top-dose-only effect; inactive means no such curve, though single readings can be large or run the other way. The list shows a part of the results.

test: Primary qHTS for Identification of Small Molecule Inhibitors of Huntingtin Promoter Activity; conditions: HEK293 HTT promoter firefly luciferase reporter (activity 0% = vehicle and -100% = no light), 24 h; series mostly up to 57.5 µM; activity change, negative = inhibition: at the top concentration; further: nearly all actives have a fitted effect of over 50% in size
Outline: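 HEK293 cells carrying firefly luciferase reporters were seeded at 2,500 per well in Opti-MEM and cultured for 24 h. They were then treated with compounds at up to 57.5 uM final for 24 h at 37 degrees C before Dual-Glo luminescence readout.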

Row | Compound | activity change, negative = inhibition
1 | CCOc1ccc(CNC(=O)CCCn2c(=O)c3cccn3c3cccnc32)cc1 | inactive: 3.69%
2 | CCCOc1ccc(OC(=O)c2ccc(-c3ccc(CCC)cn3)cc2)cc1 | inactive: 3.39%
3 | COc1cc(NC(=O)CCNC(=O)Cn2ccc3ccccc3c2=O)cc(OC)c1OC | inactive: -9.22%
4 | COc1ccc(CCNC(=O)c2cc(Nc3ccccc3)nc3ccccc23)cc1OC | inactive: -16.7%
5 | O=C1CCc2cc(S(=O)(=O)NCc3ccccc3)cc3c2N1CC3 | inactive: -16.9%
6 | CCn1c(C(=O)Nc2ccccc2C(=O)OC)cc2sc(Cl)cc21 | inactive: -10.6%
7 | CCCCCCCCCCOc1cc2c(=O)c(C(=O)OCC)c[nH]c2cc1OCC | inactive: 0.204% [at 6.01 µM]
8 | Cc1nc2c(c(C)nn2-c2ccccc2)c(C)c1CCC(=O)Nc1ccccc1 | inactive: 15.3%
9 | Cc1ccc(NC(=O)Cn2c(=O)n(Cc3ccc(F)cc3)c(=O)c3cccnc32)cc1C | inactive: 12.9%
10 | O=C(Nc1ccc(S(=O)(=O)N(Cc2ccccc2)c2ccccc2)cc1)c1ccccc1F | inactive: -24.8%
11 | O=C(CCCCn1c(=O)c2ccccc2n(Cc2ccc(F)cc2Cl)c1=O)NCCc1ccc(Cl)cc1 | inactive: -23%
12 | COC(=O)c1ccccc1NC(=O)CCCn1c(C)c2cnn(-c3ccccc3)c(=O)c2c1C | inactive: -15.6%
13 | COc1ccccc1CNC(=O)Cc1c(C)c2cc3c(C)coc3c(C)c2oc1=O | inactive: -9.13%
14 | CCOc1ccc(CCNC(=O)C2Cc3ccccc3N2C(=O)CC)cc1 (configuration not stated) | inactive: -13%
15 | CCOC(=O)c1ccc(Nc2c(-c3ccc(OC)cc3)nc3nc[nH]n23)cc1 | inactive: -14.5%
16 | Cc1ccccc1Cn1c(=O)n(Cc2ccco2)c(=O)c2sc3ccccc3c21 | inactive: -11.4%
17 | CCC(=O)N1CCc2cc(CNC(=O)Nc3cc(OC)c(OC)c(OC)c3)ccc21 | inactive: -28%
18 | CCN(CC)C(=O)C1=C(C)Nc2nc3ccccc3n2C1c1ccccc1F (configuration not stated) | inactive: -4.39%
19 | CCOC(=O)c1cc2c(=O)n3ccccc3nc2n(CCCOC)c1=NC(=O)c1c(-c2c(F)cccc2Cl)noc1C | inactive: -21.5%
20 | O=C(Cc1ccc(NC(=O)N2CCCCc3ccccc32)cc1)NCc1cccc(Br)c1 | inactive: -14.2%
21 | COc1ccc(Cl)cc1NC(=O)Cn1c(=O)n(-c2ccc(C)cc2)c(=O)c2ccc(C(=O)NCc3ccccc3Cl)cc21 | inactive: -20%
22 | CCCCn1c(SCc2ccccc2C)nc2ccsc2c1=O | inactive: 2.14%
23 | COc1ccc(CNC(=O)C(=O)NCC(c2ccco2)S(=O)(=O)c2cccs2)cc1 (configuration not stated) | inactive: -23.2%
24 | Cc1nnc(SCc2cc(=O)c3cc(F)ccc3[nH]2)n1C | inactive: 19%

Row | Compound | activity change, negative = inhibition
25 | Cc1ccc(NC(=O)c2ccc3c(O)c(S(=O)(=O)c4ccc(Cl)cc4)c(=O)[nH]c3c2)cc1 | inactive: -1.17%
26 | C=C(C)Cn1c(SCC(=O)c2ccc(Br)cc2)nc2sc3c(c2c1=O)CCCC3 | inactive: -13.3%
27 | CC1=C(C#N)C(NC(=O)c2ccccc2)(C(F)(F)F)C(=O)N1 (configuration not stated) | inactive: -17.6%
28 | CCc1ccc2occ(CC(=O)Nc3ccc(OC)c(Cl)c3)c2c1 | inactive: -16.1%
29 | Cc1nc(SCC(=O)Nc2ccc(C)c(Cl)c2)cc(-c2ccccc2)n1 | inactive: -18.1%
30 | COc1ccc(CN(Cc2ccco2)C(=O)COc2ccccc2OC)cc1 | inactive: -12.3%
31 | CCc1ccccc1-n1cnc2cc(C(=O)NC3CCCCCC3)ccc21 | inactive: -28.5%
32 | O=C(Nc1ccccc1Cl)[C@H](CSCc1ccccc1)N1Cc2ccccc2C1=O | inactive: -29.3%
33 | O=C(c1ccc2c(c1)CCN2S(=O)(=O)c1ccccc1)N1CCN(c2ccccc2F)CC1 | inactive: -9.42%
34 | CSc1ccc(-c2nc3cccc(C)n3c2Nc2ccc3c(c2)OCO3)cc1 | inactive: -17.3%
35 | O=C(CN1C(=O)CSc2ccc(S(=O)(=O)N3CCCC3)cc21)NCc1ccccc1Cl | inactive: -14.1%
36 | Cc1ccc(OCC(=O)Nc2c(C(=O)c3ccc(Cl)cc3)oc3ccccc23)cc1C | inactive: 0.107%
37 | CCOc1ccc(C2c3c(oc4ccc(C)cc4c3=O)C(=O)N2CCCN(C)C)cc1OC (configuration not stated) | inactive: -2.88%
38 | CO[C@H]1C=CO[C@@]2(C)Oc3c(C)c(O)c4c(O)c(c(/C=N/N5CCN(C)CC5)c(O)c4c3C2=O)NC(=O)/C(C)=C\C=C[C@H](C)[C@H](O)[C@@H](C)[C@@H](O)[C@@H](C)[C@H](OC(C)=O)[C@@H]1C | inactive: -8.7%
39 | COc1ccc(-n2nc(C(=O)Nc3ccc(C(C)=O)cc3)nc2-c2ccccc2)cc1 | inactive: -16.8%
40 | COc1ccc(-c2nnc(SCCOc3ccccc3C)o2)cc1OC | inactive: 4.03%
41 | Cc1cn(C)c(CC(=O)Nc2ccc(F)cc2Cl)c1C(=O)O | inactive: -16.7%
42 | Cc1cc(C)cc(OCCSc2nc3ccc(NC(=O)COc4ccccc4)cc3s2)c1 | inactive: -30.6%
43 | Cc1ccc(OCC(=O)Nc2nonc2-c2ccc(Br)cc2)cc1C | inactive: -17.7%
44 | CCOC(=O)C(CC)N1CCN(Cc2ccc(F)cc2)C(=O)C1=O (configuration not stated) | inactive: -8.75%
45 | CCCc1nc(C(C)(C)O)c(C(=O)O)n1Cc1ccc(-c2ccccc2-c2nn[nH]n2)cc1 | inactive: -8.74%
46 | CCn1nc(C)c2c(-c3ccccc3)cc(=O)n(C(C)C(=O)Nc3cc(C)ccc3C)c21 (configuration not stated) | inactive: -22.2%
47 | O=C(Nc1nc2c(F)cccc2s1)c1ccc(S(=O)(=O)N2CCCc3ccccc32)cc1 | inactive: 0.792%
